# According to the RNAGym collection of RNA variant scans (doi:10.7554/elife.90254):
# Read counts are not given, so values of variants with three or more changes are uncertain.
# B1: LINE1-mini (parent)
# chain: GGCAGAGCUCAACACAGCGUGGCAAAGUGGCUGUGGCUAGACUGCC
# Variants of: B1
# Experiment: self-cleavage, relative activity (ratio to wild type); higher = more cleavage; in vitro, sequencing; the parent is a self-cleaving ribozyme
row,Variant,self-cleavage
1,G22U A39U G44C C46G,0.1
2,C3G G7A C8A G17A C18U A26U U28A C37A,0.3
3,A4G U32C U34C A41U,0.03
4,A6C C10A C13A,0.03
5,C37A G40A C42U,0.09
6,G1U G7C G33C G40A G44U,0.07
7,C13U G27A G33A,0.12
8,U9C G21C C23G A26U,0.02
9,G22U G29U U34C,0.25
10,C15U G30U C42G,0.02
11,A16U G17A C23U G27C,0.21
12,G5A A11C G36U,0
13,C8G C10U G22U A25C U32C,0.03
14,A11C G19A G22C C45A C46U,0
15,U20A G40U C45U,0.07
16,G17U G21U A26C,0.1
17,G5C A25G G33U A39U,0.04
18,G17C G29C G40U,0.05
19,G1U G2A G7A C18U A39U,0.01
20,C13A U32G A39U,0.15
21,C8A C31U C37G,0.48
22,C3U U9G C23G,0.13
23,G2C C18U G19A G29U G36C C42U,0.02
24,A4C A25U A39C G40C,0.06

row,Variant,self-cleavage
1,C10A C13U U38C G44C,0.03
2,A12C C15A G19C U20A C37A,0.01
3,A4C C31U C37U C45A,0.04
4,C3G C10A A11C,0.01
5,G7C G17C G30U,0.11
6,C15U U28G U32C A41C,0.05
7,G5U C42G U43A,0.05
8,G2A C18U G35U,0.12
9,G1A G29U A39U,0.07
10,C10A C13A G33U,0.17
11,C3A C23A A25U G36A G40C,0.05
12,U9G C13U U34A,0.09
13,G21A A41C U43A,0.08
14,U28A G35C A39G,0.02
15,G2U A4G C13U G27U G29C G35A,0.05
16,C15A G17U G40A,0.1
17,C3U C13G A25C,0.03
18,C8U C15U U38C,0.18
19,A4G U20C U32G,0.1
20,U9A A11C C23G G40A,0.02
21,G19U G22U G40C C42G,0
22,A4C C15A G17U G40U,0
23,G1A G2U A26G,0.07
24,G2A C13A C15U G21U C31U U43A,0.63

row,Variant,self-cleavage
1,C13U A16U A25C C31U C37A A39C C45A,0.02
2,C3U G29U G35U,0.18
3,G1C A4U G19C A41G,0
4,C15G U32C G33U,0.04
5,G17C A25U G44U,0.01
6,C15A G17C U38C,0.08
7,A6C C31A G33C U34G,0.03
8,C3A C8G A16U G19A G21C G44A,0.08
9,G2U A14G C45G,0.24
10,A4G G7A C10G G19C,0.01
11,U32A G33A G44A,0.07
12,G1A C8G G19U U20G G36C,0.45
13,C8U A11U G21U,0.01
14,A14U G19C U20A G29C C37U A41C,0.02
15,C8A C10A G36U,0.01
16,G1U A12C C42G,0.02
17,C8U A25G A41C,0.14
18,G1C A14U C46G,0.03
19,C8U A12U U43C,0.07
20,C15U G36A C45A,0.02
21,G7U A14C C23G G35C,0.08
22,A4C C8U G30U,0.23
23,C10A C42G U43C,0.01
24,A6G U20G G21U C37U C46A,0.01

row,Variant,self-cleavage
1,G2A A12C A25U A26G,0.03
2,G19C G33U G36U U43C,0.06
3,C3G G7A A26U U34C G40A,0.16
4,C3A U20G G21A U43G,0.05
5,G2A A16U U34C,0.32
6,C8U C37G C42A,0.02
7,C13A A41G C45A,0.03
8,G1C C18U G29U G44C,0.11
9,G7C A11U A16U G33A G44U,0.01
10,A16C C18A G19C G36U,0.07
11,A12G A41U G44A,0.03
12,G2C G21U C45U,0.13
13,C10U G33U G36U U43C,0.05
14,U9C C23G G30C,0.05
15,A12C A26U C45G,0.03
16,C31A U38G G44A,0.02
17,A24U G30U C37G G40C,0.02
18,A11C C15G C18U,0.02
19,C3A U9G C31U G33U U43G,0.05
20,G7C C23A U43A,0.01
21,G7A C8G C23U,0.14
22,A6C G33U A39U,0.07
23,A4G A6U G17U G33U U38A C46A,0.18
24,G2U A4G C8U G19C G22C U28C U32C U43G,0.03

row,Variant,self-cleavage
1,C10U U20G C31A,0.02
2,G2A U9A G22U G29C G33C,0.06
3,C15A G22U A25G U28C U38C,0.03
4,G5C A25G A39G,0.07
5,C8G G17C U32G,0.04
6,C3U G5C A11G C23A C46U,0.03
7,G2U C15A A16U G33U C37U,0.03
8,G1A G2U G7U C23A A25U G29C,0.02
9,U20C U28C U38A,0.28
10,G2C G36C G40U,0.02
11,C15G A16C U34C G40U,0.17
12,C10U A24G G29U U34G,1.01
13,A25G G29C G40U,0.15
14,C15G A16U G30C,0.1
15,G2A C3G C13G,0.06
16,C15A C31A C37G A39C,0.02
17,G7U C8G G17C C46A,0.06
18,U9G C15U C31A,0.03
19,C8A G35C U43C,0.01
20,C3A G19C G44C,0.15
21,A16U C18G G27U C42U,0.02
22,G7C C8U A26C G29U G30U C31U,0.17
23,A4U C15A C18A U38A,0.02
24,U38C C42G G44A,0.05

row,Variant,self-cleavage
1,C3G A11U U32A,0.03
2,C18A G21U U28G U32G,0
3,G2A A12G G35C,0.07
4,C18A G21A G22C C23A G27A U28C,0.25
5,G1A C15A C23A G36U A39C A41C,0.02
6,G1U A4G A6U U9A G36C,0.01
7,C18A G27A A41U,1.21
8,C13A A16U U43G C46G,0.07
9,G5U C31U C37A,0.07
10,A14G C18U U34G,0.25
11,A4G A12C G19U G30U G33C U38A,0.12
12,G2C A14U G22C G35C A41G C45G,0.01
13,A16G G17U G29A G33U C46A,0.05
14,C10U A11G C15U A25U U28G U43A,0.01
15,G1U G5U G17U G19C,0.09
16,C23U G27A A39C C45G,0.06
17,C8A G29U G30U,0.37
18,U20G U34G G36U U38C,0.06
19,A6U G7C A26U,0.7
20,G1U A12G A16C G36U,0.06
21,C10A G22A C23U C42A,0.03
22,C15G C23U U38A A39U A41U,0.03
23,C15U C18U C42U,0.02
24,G1A C10A G19U C46A,0.11

row,Variant,self-cleavage
1,G21C A24G U34A G40U,0.03
2,G17A A39C G40U C45U,0.01
3,C18A G21A A41G,0.25
4,G19A U38A G44U,0.19
5,G7A G33C A39G,0.22
6,G5U A26U U43C,0.04
7,A16C G17C G27C G36U,0.19
8,U9G A11U G19C C23A U34G,0
9,G1U A26G U32A,0.06
10,A4C A14U G22A A39C,0.09
11,C3G A24U G29U C42G,0.43
12,G5C G19C G21C U28A G36C,0.03
13,G7C U9C C13U C23U G33A,0.02
14,G5U A11G C18G,0.01
15,C8A A11U G17U A39U,0.02
16,G7U G21A A24G G36C U43C,0.01
17,C3U A4U G7U C15G G17A G30A,0.03
18,A14U C18U G27C,0.13
19,C3G C8U G17C C42G,0.06
20,A24U G27U G33A C42A,0.08
21,G22A G29U C46G,1.03
22,A6C G7A U9A G36U C37A,0.1
23,C3A G35C G36A C37G,0.31
